Variants at the floor of the assay are shown more often than the library holds them.
B1: TPR 5TU (parent)
chain: GGAUCUUCUCGAUCUAACAAAAAAGACAAAUCUGCCACAAAGCUUGAGAGCAUCUUCGGAUGCAGAGGCGGCAGCCUUCGGUGGCGCGAUAGCGCCAACGUUCUCAACUAUGACACGCAAAACGCGUGCUCCGUUGAAUGGAGUUUAUCAUG

Variants of: B1
Assay: polymerase ribozyme fitness, log enrichment relative to wild type (log ratio); higher = more active; in vitro selection for triplet polymerase activity
How it was run: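 Each subunit of a heterodimeric triplet polymerase ribozyme was mutagenized into a library by PCR, transcribed, and subjected to one round of in vitro selection, run in triplicate. Libraries were annealed with a biotinylated primer, the partner subunit and triplets, incubated frozen at −7 °C, and extended constructs were gel-excised, captured on streptavidin beads and recovered by RT-PCR. Input and output libraries were sequenced on Illumina, keeping genotypes with ≥10 input reads and ≥1 read per output. Fitness is log base 2 of genotype enrichment divided by wild-type enrichment, from inverse-variance-weighted replicate averages.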

Point of comparison: A41C G58A, “polymerase ribozyme fitness (log ratio)” value 0.163. Against it:
- U44A G58A C69G A150C — lower, ≤ -4.2
- A41U U82A C114G A122U G126A G133A — lower, ≤ -4.2
- U44A C72U A73G G86U A138C — lower, ≤ -4.2
- A41C U55G C95A A113G C129A — lower, ≤ -4.2
- C43U A73C G81A C93G — lower, ≤ -4.2
- G42C C43A — lower, ≤ -4.2
- U44A C87A C116G C123G C131G G136U G141U — lower, ≤ -4.2
- C43G G68A G71A A122G G128C U130C — lower, ≤ -4.2
- G42U G70C C79G C85U C103A G112A G141C — lower, ≤ -4.2
- G42C G50A A113C U139G U145C U148C — lower, ≤ -4.2
- A41U G84A C96U A107C A147C — lower, ≤ -4.2
- U44A A73G G83U C129U C132U — lower, ≤ -4.2
- C43U A52C U56A C87A A113C — lower, ≤ -4.2
- C43U G70A C87A — lower, ≤ -4.2
- C43U U61C A64C C72A A122U A138U U146G — lower, ≤ -4.2
- C43G G84A C95A A106U C118G G143U — lower, ≤ -4.2
- G42A G59U C87G U90G G141U — lower, ≤ -4.2
- G42C G88A A89C C93G A97G C103A A110C — lower, ≤ -4.2
- C43G U53A G94C C96U A98C C114G A137C — lower, ≤ -4.2
- C43G A52G A64U A91U A122C — lower, ≤ -4.2
- G42U A73G U78G C93A U146A — lower, ≤ -4.2
- A41C U44A G81U G86C C96A — lower, ≤ -4.2
- C43G G84U A98C U102A G117U C118A — lower, ≤ -4.2
- C43G U56A G80A G83U C95A C118A — lower, ≤ -4.2
- A41C U55C C85G C108U G126A — lower, ≤ -4.2
- A41U G46A G70C C87G U148C G152A — lower, ≤ -4.2
- G42A C72G C95U G152A — lower, ≤ -4.2
- A41C U56A A91G A97G A142U — lower, -3.86
- A41U U56A G74A C76U G86U G133C — lower, ≤ -4.2
- C43G U61G A73U — lower, ≤ -4.2
- A41U G46C G65A C79U G80A G88C G92A A115C — lower, ≤ -4.2
- G42C U44A G70C C96U G126U G141A — lower, ≤ -4.2
- G42A U53G A64U G67C C76A G86C C93G C95U — lower, ≤ -4.2
- G42U C95A — lower, ≤ -4.2
- C43U C57U — lower, -3.79
- A41C G84A G88A A97C A120G C129G — lower, ≤ -4.2
- G42C A49G A138C — lower, ≤ -4.2
- C43G U55A A89U A115U U139C G140U A150C — lower, ≤ -4.2
- C43A G88A — lower, ≤ -4.2
- A41G C76U G86A G117A — lower, -0.646
- A41U G65C U90G — lower, ≤ -4.2
- U44A A66G G128A U146C — lower, ≤ -4.2
- A41U U53A C75G C87G A89U — lower, ≤ -4.2
- G42U C108U C125U A138U U148A — lower, -4.13
- G42A G81C C85U C99G — lower, ≤ -4.2
- G42U G50C C99U U127G — lower, ≤ -4.2
- A41C G112C C114G — lower, ≤ -4.2
- G42C U56G G81A G84A C123A G126A — lower, ≤ -4.2
- A41U U82A C95G A138C — lower, ≤ -4.2
- C43U C75A C79U G86U C87U G117U A150C — lower, ≤ -4.2
- G42C G88U U101G A106U — lower, ≤ -4.2
- C43G G67C C69U U77A A97G C118U A119G — lower, ≤ -4.2
- U44A A98G U101A G112C — lower, ≤ -4.2
- U44A C69G U78G G86A A142C — lower, ≤ -4.2
- C43U U56A C72A C85A — lower, ≤ -4.2
- U44A C75G C85U U134G A138C — lower, ≤ -4.2
- U44A A52C A66C A73C C87G C95U A115G A121U — lower, ≤ -4.2
- C43U G46A A66U C76G G83A A110U — lower, ≤ -4.2
- G42U G68A A91C — lower, ≤ -4.2
- A41U C96A C105A G117U U144G — lower, ≤ -4.2
- A41C U53A C54U C75A G86C U144G U145A — lower, ≤ -4.2
- C43U G74U C96U G141A — lower, ≤ -4.2
- G42C G46A G68C C95A A106U C108G — lower, ≤ -4.2
- G42A A89G C93U C125U G141U — lower, ≤ -4.2
- A41G U56A C76U U77G G83C A110G U134A — lower, ≤ -4.2
- C43U U144G — lower, ≤ -4.2
- G42A A52C U148G — lower, ≤ -4.2
- A41U G46U A52U — lower, -4.03
- G42C U61A A64U C125A — lower, ≤ -4.2
- G42A G88C C95A C125G — lower, ≤ -4.2
- C43U A91U C95G A98U A107U G141A — lower, ≤ -4.2
- A41C U56A G59C G74C C79U C85A U102G U109G A120G G124A U148C — lower, ≤ -4.2
- A41U A47C C125G G126A A138G — lower, ≤ -4.2
- A41C U55G G83A G86A A97U G128A C131A — lower, ≤ -4.2
- C43U A64C G92A G126C — lower, ≤ -4.2
- C43U A91C C99G C114G — lower, ≤ -4.2
- C43A U53A U55A G74A C76A G88U A142G — lower, ≤ -4.2
- G42C G50U G84A C99A — lower, ≤ -4.2
- A41U G50A G71C G124C — lower, ≤ -4.2
- U44A A47G G86U — lower, ≤ -4.2
- C43A A52C C75U U90G C95U C96G C114G U144G — lower, ≤ -4.2
- C43U G50C A66U G136U — lower, ≤ -4.2
